# Publication PMC4336329 (PLoS ONE, 2015)
# Screen size: about 310,000 compounds; about 14,000 (4.5%) showed an effect of 50% or more. Effects have a minus sign here. The list shows a part of the results.
# Target: human ether-à-go-go-related gene (hERG) potassium channel (human, UniProt Q12809)
# Assay: primary screen, population patch clamp on CHO cells stably expressing hERG
# 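Note: peak tail current of the secondary pulse compared with the same well before compound.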
# Chain of human ether-à-go-go-related gene (hERG) potassium channel (Q12809 whole entry, looked up): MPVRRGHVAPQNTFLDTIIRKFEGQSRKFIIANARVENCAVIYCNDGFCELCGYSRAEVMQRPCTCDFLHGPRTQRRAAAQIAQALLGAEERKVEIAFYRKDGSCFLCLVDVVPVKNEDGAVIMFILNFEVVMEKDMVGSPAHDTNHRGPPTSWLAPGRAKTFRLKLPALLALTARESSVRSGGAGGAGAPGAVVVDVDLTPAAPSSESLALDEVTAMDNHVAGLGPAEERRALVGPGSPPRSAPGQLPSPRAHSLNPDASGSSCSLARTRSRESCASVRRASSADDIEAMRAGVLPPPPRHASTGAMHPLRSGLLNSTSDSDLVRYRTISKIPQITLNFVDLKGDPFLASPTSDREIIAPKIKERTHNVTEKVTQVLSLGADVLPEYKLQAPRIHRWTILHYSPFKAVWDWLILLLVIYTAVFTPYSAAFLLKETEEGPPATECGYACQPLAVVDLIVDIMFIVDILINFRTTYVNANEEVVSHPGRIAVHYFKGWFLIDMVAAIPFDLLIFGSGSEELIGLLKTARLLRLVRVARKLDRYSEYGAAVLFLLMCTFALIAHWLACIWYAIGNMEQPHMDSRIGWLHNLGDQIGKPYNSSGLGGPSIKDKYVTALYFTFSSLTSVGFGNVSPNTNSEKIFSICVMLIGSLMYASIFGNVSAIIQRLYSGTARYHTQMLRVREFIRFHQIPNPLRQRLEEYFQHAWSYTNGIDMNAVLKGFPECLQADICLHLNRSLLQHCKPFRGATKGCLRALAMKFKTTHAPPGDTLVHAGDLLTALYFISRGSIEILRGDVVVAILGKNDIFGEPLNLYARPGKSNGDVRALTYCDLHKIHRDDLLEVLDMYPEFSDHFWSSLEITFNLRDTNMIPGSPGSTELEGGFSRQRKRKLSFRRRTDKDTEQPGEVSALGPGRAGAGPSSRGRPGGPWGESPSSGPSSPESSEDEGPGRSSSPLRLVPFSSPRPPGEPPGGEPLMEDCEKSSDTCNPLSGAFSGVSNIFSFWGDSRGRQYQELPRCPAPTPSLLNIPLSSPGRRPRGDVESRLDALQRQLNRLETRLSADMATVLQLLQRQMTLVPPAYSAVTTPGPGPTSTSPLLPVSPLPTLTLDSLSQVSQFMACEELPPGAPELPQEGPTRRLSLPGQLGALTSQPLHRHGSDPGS
row,SMILES,"hERG current change (%, negative = inhibition) at 10uM"
1,CN1CCCN(Cc2cccc3ccccc23)CC1,8.91%
2,CSc1ccccc1NC(=O)Cc1ccccc1[N+](=O)[O-],12.6%
3,CCOCCCNC(=O)c1cc(Cl)c(NC(=O)C2=C(C)OCCS2)cc1OC,-9.78%
4,Cc1ccc(Nc2cc(=O)[nH]c(=O)[nH]2)cc1Cl,8.98%
5,COC(=O)c1ccccc1NC(=O)CN1CCCCCC1,8%
6,COc1cccc(NC(=O)Cn2cnc3c(oc4nc5c(cc43)CCCC5)c2=O)c1,13.2%
7,O=c1c(C/C=C/c2ccccc2)c(O)ccn1Cc1cccc(Cl)c1,24.2%
8,Cn1c(SCc2ccccc2)nnc1-c1c[nH]c2ccccc12,12.3%
9,CCCN1CCN(C(=O)CCCNC(=O)c2ccc(Cl)cc2)CC1,-0.957%
10,Cc1c(C)c2ccc(OCC(=O)N3C[C@H]4C[C@@H](C3)c3cccc(=O)n3C4)cc2oc1=O,3.23%
11,COc1ccc(/C=c2/sc3n(c2=O)C(c2ccccc2OC)C2=C(N=3)c3ccccc3CC2)cc1O (stereo not shown),2.43%
12,CC1(C)CC(=O)C(CC2C(=O)CC(C)(C)CC2=O)C(=O)C1,17%
13,Cc1cc(C)c2oc(C(=O)N(Cc3ccc(F)cc3)C3CCS(=O)(=O)C3)cc(=O)c2c1 (stereo not shown),-43.9%
14,COc1ccc(NC(=O)CCNS(=O)(=O)c2ccc3c(c2)c(=O)n(C)c(=O)n3C)cc1OC,21.4%
15,CC1CC(=O)C2=C(C1)Nc1ncnn1C2c1ccccc1 (stereo not shown),15.5%
16,CC(C)N1C(=O)N(c2ccccc2)C(C)(O)CC1(C)C (stereo not shown),3.75%
17,COc1cccc(CN(C)C(=O)c2ccccc2SCC(=O)N2CCCC2)c1,-3.76%
18,CC(C)c1ccccc1NC(=O)COC(=O)CCN1C(=O)/C(=C\C=C\c2ccccc2)SC1=S,8.57%
19,CS(=O)(=O)N1CCN(c2ccc([N+](=O)[O-])c(NCc3cccnc3)c2)CC1,-7.21%
20,O=C(c1ccco1)N(Cc1cccc(F)c1)C1CCS(=O)(=O)C1 (stereo not shown),-5.78%
21,Cc1ccc(S(=O)(=O)Cn2nnnc2C(C(C)C)N2CCSCC2)cc1 (stereo not shown),-2.25%
22,CCOC(=O)Cn1nc(C)c(NC(=O)COc2ccc(C)c(C)c2)c1C,12.2%

row,SMILES,"hERG current change (%, negative = inhibition) at 10uM"
1,Cc1cccc(N2C(=O)C(Oc3ccc(Cl)cc3Cl)C2C(=O)O)c1C (stereo not shown),9.02%
2,Cn1c(O)c(/C=N/c2ccccn2)c(=O)n(C)c1=O,-0.417%
3,CCOC(=O)N1CCc2c(sc3c2c(=O)n(Cc2ccccc2)c(=O)n3Cc2ccc(C)cc2)C1,17.9%
4,O=C1C=C(c2ccc3ncccc3c2)C[C@@H](c2ccc3c(c2)OCO3)C1,1.59%
5,CC1=NN(C(C#N)c2ccc(F)cc2)C(C)(C)C1 (stereo not shown),5.24%
6,CCCCc1noc(-c2c(-c3ccccc3Cl)noc2C)n1,-3.35%
7,CCNC(=S)NNC(=O)CCn1c2ccccc2c2ccccc21,14.4%
8,Cc1coc2cc3oc(=O)c(CCC(=O)NCc4ccccn4)c(C)c3cc12,-1.39%
9,CCn1c(=O)n(CC)c2cc(N3CCCC3)c(NC(=O)c3cc(Br)ccc3OC)cc21,7.35%
10,CC1(C)CC(=O)C2=C(C1)N(CCN1CCOCC1)C1=C(C(=O)CC(C)(C)C1)C2c1ccc(Cl)cc1,-34.1%
11,CCN(Cc1ccccc1)C(=O)C1CCN(S(=O)(=O)c2ccc3c(c2)OCCO3)CC1,-6.73%
12,Cn1c2c(c(=O)n(C)c1=O)CN(CCCN1CCOCC1)CN2,-1.29%
13,CCCCOc1ccc(Cc2cnc(N)nc2N)cc1,-0.891%
14,CCOC(=O)c1oc2ccccc2c1NC(=O)COc1ccc(F)cc1,14%
15,CC(=O)c1cccc(NC(=O)CCn2c(=O)oc3ccccc32)c1,-6.39%
16,Cn1c(SCC(=O)NCc2ccc3c(c2)OCO3)nnc1-c1c[nH]c2ccccc12,-27.8%
17,CCN(CC)CC#CCC(OC)(c1ccccc1)c1ccccc1.Cl,-32.5%
18,Cc1ccc2nc(SCC(=O)Nc3ncccn3)[nH]c2c1,22.3%
19,Cc1cccc(NC(=O)CSc2nnc([C@@H]3CCCN3C(=O)OC(C)(C)C)o2)c1C,10.7%
20,O=C1CC(C(=O)Nc2ccc(C(=O)N3CCOCC3)cc2)C2(CCCCC2)O1 (stereo not shown),8.26%
21,O=S(=O)(Nc1nc(-c2sccc2Cl)cs1)c1cc(Cl)ccc1Cl,13.8%
22,COc1ccc(CCN(C)c2ncnc3sccc23)cc1OC,7.49%

row,SMILES,"hERG current change (%, negative = inhibition) at 10uM"
1,COc1ccc(CC(=O)Nc2cc(S(=O)(=O)N3CCCCC3)ccc2C)cc1OC,5.16%
2,O=C(NCC1CCCO1)c1cccc(NS(=O)(=O)c2ccc(Br)cc2)c1 (stereo not shown),-16.9%
3,N=C1C(c2ccccc2)=C(O)CN1c1cccc2ccccc12,-1.51%
4,COC(=O)c1c(NC(=O)c2ccc(N(C)S(=O)(=O)c3ccc(C)cc3)cc2)sc2c1CCCC2,6.33%
5,CC(=O)Nc1cccc(NC(=O)c2cccc(S(=O)(=O)N3CCN(Cc4ccccc4)CC3)c2)c1,0.275%
6,Cc1nc(NS(=O)(=O)c2ccc(Cl)s2)c2c3c(sc2n1)CCCC3,-28.7%
7,Cc1ccc(-n2ncc3c(=O)n(CC(=O)OCc4ccccc4)cnc32)cc1,-11.2%
8,Cc1cc(C)c(NC(=O)CN2C(=O)CC(C)S(=O)(=O)c3ccccc32)c(C)c1 (stereo not shown),20.1%
9,CCN(Cc1nc2cc(OC)c(OC)cc2c(=O)[nH]1)C(=O)c1ccc(S(=O)(=O)N(C)C)cc1,4.07%
10,CC(C)NC(=O)c1ccc(COCC(F)(F)F)cc1,18.9%
11,CN(C)S(=O)(=O)c1ccc(C(=O)OCc2ccc(C#N)cc2)cc1,-11.1%
12,CN(c1cccc(NC(=O)CN(c2ccc(C34CC5CC(CC(C5)C3)C4)cc2)S(C)(=O)=O)c1)S(C)(=O)=O,13%
13,COc1ccccc1CNC(=O)Cn1c(=O)oc2cc(S(=O)(=O)N3CCCC3)ccc21,5.73%
14,c1ccc(-c2nnc(CSc3nc4ccccc4[nH]3)o2)cc1,-34.8%
15,CC1CCN(S(=O)(=O)c2ccc(NC(=O)c3ccncc3)cc2)CC1,-27.1%
16,CCCOP(=O)(c1ccc(N(C)C)cc1)C(O)c1ccncc1 (stereo not shown),9.86%
17,O=C(COc1ccc(Cl)cc1Cl)N1CCN(C(=O)c2ccco2)CC1,20.6%
18,CC(=O)c1c(C)[nH]c(C(=O)OC(C)C(=O)Nc2cc(S(=O)(=O)N3CCCCC3)ccc2Cl)c1C (stereo not shown),0.883%
19,CCOc1cc2c(cc1OCC)-n1cccc1C(c1c(O)cccc1OC)NC2.Cl (stereo not shown),-28%
20,CC(C)CN(C(=O)COC(=O)C12CC3CC(CC(Cl)(C3)C1)C2)c1c(N)n(Cc2ccccc2)c(=O)[nH]c1=O,17.8%
21,CC(=O)O.CC1=CC(C)C(/C=N/N=C(N)N)C(C)C1 (stereo not shown),-18.4%
22,CCCCn1c(SCC(=O)Nc2cc(C)on2)nnc1-c1cccs1,-48.3%

row,SMILES,"hERG current change (%, negative = inhibition) at 10uM"
1,COc1ccc(S(=O)(=O)NC(C)C(=O)N2CCCCCC2)cc1 (stereo not shown),0.735%
2,Cc1ccc(SCc2ccc(C(=O)Nc3cc([N+](=O)[O-])ccc3C)cc2)cc1,13.3%
3,COCCn1c(SCC(=O)Nc2ccccc2)nc2c(oc3ccccc32)c1=O,0.528%
4,O=C(O)C1CCCCC1C(=O)Nc1cccc(Cl)c1Cl (stereo not shown),19.5%
5,COc1cc(NC(=O)c2ccc(N3CC4CC(C3)c3cccc(=O)n3C4)c(NC(=O)c3ccncc3)c2)cc(OC)c1OC (stereo not shown),6.62%
6,Cc1ccccc1NC(=O)Nc1ccccn1,19.6%
7,Cc1cc2cc3c(cc2nc1SCC(=O)N1c2ccccc2CC1C)OCO3 (stereo not shown),3.48%
8,O=C(OCc1cc2ccccc2[nH]c1=O)c1ccccn1,9.06%
9,CCOC(=O)C1(CCc2ccccc2)CCN(C2CCSCC2)CC1,-76.3%
10,CCC(COC)Oc1cc(NCc2ccccc2)c2ncn(C(C)C)c2c1 (stereo not shown),-6.65%
11,CC(C)CNC(=O)C(=O)NCC1CCCN1S(=O)(=O)c1cccs1 (stereo not shown),-3.06%
12,Cc1ccc(NS(=O)(=O)c2c(C)ccc3nsnc23)c([N+](=O)[O-])c1,9.09%
13,Cc1occc1C(=O)N1CCN(Cc2ccccc2)CC1,-1.16%
14,Nc1ccc(S(=O)C(F)(F)F)cc1 (stereo not shown),7.17%
15,COc1ccc2c(c1OC)C(=O)N1C2SC[C@H]1C(=O)NCCC(C)C (stereo partly shown),12.9%
16,Cc1ccc(N(C=NC#N)CC(=O)N2CCN(c3ccccc3)CC2)cc1,-49.3%
17,COc1ccc(-c2ccc3oc(-c4ccsc4)cc3c2)cc1,28.4%
18,O=C(CCC(=O)N1CCCC1)Nc1ccc([N+](=O)[O-])cc1,-1.25%
19,COc1cccc(C(=O)NC(C)c2ccc(-c3ccccc3)cc2)c1OC (stereo not shown),18.5%
